This note sets out measurements from paper PMC4336329 (PLoS ONE, 2015).

Structures are written as SMILES. Hit rate of the full screen: of about 310,000 compounds, about 14,000 (4.5%) showed an effect of 50% or more. Effects have a minus sign here. The list shows a part of the results.
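Note: peak tail current of the secondary pulse compared with the same well before compound.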

In this assay the target is human ether-à-go-go-related gene (hERG) potassium channel (human, UniProt Q12809). Nature of the assay: primary screen, population patch clamp on CHO cells stably expressing hERG.
Sequence of human ether-à-go-go-related gene (hERG) potassium channel (Q12809 whole entry, looked up): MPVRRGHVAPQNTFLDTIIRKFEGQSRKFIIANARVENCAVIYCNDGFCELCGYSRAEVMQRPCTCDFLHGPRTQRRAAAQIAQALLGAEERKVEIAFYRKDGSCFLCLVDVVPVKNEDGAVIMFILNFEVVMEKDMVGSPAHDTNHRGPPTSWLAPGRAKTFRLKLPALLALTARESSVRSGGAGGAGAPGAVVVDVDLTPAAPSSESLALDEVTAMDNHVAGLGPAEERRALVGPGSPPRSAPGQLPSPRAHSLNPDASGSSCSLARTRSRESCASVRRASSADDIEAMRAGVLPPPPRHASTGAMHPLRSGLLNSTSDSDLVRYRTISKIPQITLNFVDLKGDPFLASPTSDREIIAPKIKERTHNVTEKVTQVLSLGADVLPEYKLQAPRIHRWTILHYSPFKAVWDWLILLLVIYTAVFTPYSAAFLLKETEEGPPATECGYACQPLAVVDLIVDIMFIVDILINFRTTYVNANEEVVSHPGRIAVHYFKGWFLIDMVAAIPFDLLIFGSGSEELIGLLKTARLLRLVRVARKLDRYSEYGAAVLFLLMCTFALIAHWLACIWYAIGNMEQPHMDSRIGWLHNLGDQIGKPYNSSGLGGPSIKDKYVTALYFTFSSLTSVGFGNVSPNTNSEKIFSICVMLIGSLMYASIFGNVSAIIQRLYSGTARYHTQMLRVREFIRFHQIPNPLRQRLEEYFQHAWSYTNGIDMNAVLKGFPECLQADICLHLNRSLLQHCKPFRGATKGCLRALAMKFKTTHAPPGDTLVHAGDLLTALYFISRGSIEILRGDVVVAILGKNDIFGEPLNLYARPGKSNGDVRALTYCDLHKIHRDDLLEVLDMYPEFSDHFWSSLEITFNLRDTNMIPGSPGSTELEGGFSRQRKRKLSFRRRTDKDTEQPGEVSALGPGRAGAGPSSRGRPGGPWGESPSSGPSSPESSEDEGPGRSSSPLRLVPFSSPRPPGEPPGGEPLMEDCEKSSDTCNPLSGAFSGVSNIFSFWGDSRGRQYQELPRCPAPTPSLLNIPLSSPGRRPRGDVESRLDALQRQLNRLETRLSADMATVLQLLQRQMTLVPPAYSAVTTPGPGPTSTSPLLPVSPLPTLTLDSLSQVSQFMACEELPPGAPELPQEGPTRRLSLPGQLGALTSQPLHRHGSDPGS
As for `O=Nc1c2nc3ccccc3n(O)c-2c2ccccc12`, the “hERG current change (%, negative = inhibition) at 10uM” value is on record as -5.65%.

Consider `Cc1cc(Cl)c(S(=O)(=O)NCc2cccnc2)cc1OCC(N)=O`, for which the “hERG current change (%, negative = inhibition) at 10uM” value is recorded as 10.1%.

Turning to `O=c1[nH]c(=O)n(Cc2ccccc2)c(O)c1/C=N/Nc1c(F)c(F)c(F)c(F)c1F`, the “hERG current change (%, negative = inhibition) at 10uM” value is given as 3.83%.

For `CCc1ccc(/C=C2/SC(N3CCOCC3)=NC2=O)cc1`, the “hERG current change (%, negative = inhibition) at 10uM” value is -13.8%.

Regarding `CCOC(=O)C1C(=O)NCC2CCCC21` (stereo not drawn), the “hERG current change (%, negative = inhibition) at 10uM” value is listed as 5.38%.

Turning to `COc1ccc(N(CC(=O)NCc2ccccc2)S(C)(=O)=O)cc1`, the “hERG current change (%, negative = inhibition) at 10uM” value was -27.9%.

`O=C(c1cc2nc(-c3ccccc3)cc(C(F)(F)F)n2n1)N1CCN2CCCC2C1` (stereo not drawn): the “hERG current change (%, negative = inhibition) at 10uM” value is recorded as -30.3%.

As to `CCOC(=O)c1ccc(NC(=O)CCc2c(C)nc3ncnn3c2C)cc1`, the “hERG current change (%, negative = inhibition) at 10uM” value is -47%.

Consider `CCOc1ccc(C(=O)NCCC(=O)N2CCC3(CC2)NCCc2[nH]cnc23)cc1OCC`, for which the “hERG current change (%, negative = inhibition) at 10uM” value turned out to be 19.9%.

Regarding `O=C(NCCc1ccccc1)C(c1ccc(F)cc1)N(C(=O)c1csnn1)C1CC1` (stereo not drawn), the “hERG current change (%, negative = inhibition) at 10uM” value is -2.1%.

With `O=C1N/C(=N/O)S/C1=C/c1cccnc1`, the “hERG current change (%, negative = inhibition) at 10uM” value is on record as -22.5%.

Regarding `COc1ccccc1N(CC(=O)N1CCCCCC1)S(C)(=O)=O`, the “hERG current change (%, negative = inhibition) at 10uM” value is on record as 20%.

Consider `COc1cc(C(=O)NCCSc2ccc(Cl)cc2)cc(OC)c1OC`, for which the “hERG current change (%, negative = inhibition) at 10uM” value was -3.08%.

For the compound `CC(C)NC(=O)c1nn(C)c2ccccc12`, the “hERG current change (%, negative = inhibition) at 10uM” value was found to be 3.87%.

On to `CCN1C(=O)/C(=C2/C(=O)N3c4c(cc(OC(C)=O)cc42)C(C)=CC3(C)C)SC1=S`, for which the “hERG current change (%, negative = inhibition) at 10uM” value was 3.55%.

As for `O=C(Cn1cnc2ccccc2c1=O)Nc1nc2ccccc2s1`, the “hERG current change (%, negative = inhibition) at 10uM” value was 24.5%.

`O=C(CSc1ncccn1)Nc1ccc2c(c1)CCC2`: the “hERG current change (%, negative = inhibition) at 10uM” value is given as -4.14%.

Regarding `Cc1ccc(C(=O)NNC(=O)C(C)Oc2ccccc2F)cc1S(=O)(=O)N1CCOCC1` (stereo not drawn), the “hERG current change (%, negative = inhibition) at 10uM” value is given as -12.4%.

Take `N/C(=N\OC(=O)Cc1ccccc1)c1ccccn1`: the “hERG current change (%, negative = inhibition) at 10uM” value is 1.47%.

Consider `O=C(Cn1c(=O)n(CCCC(=O)NC2CCCC2)c(=O)c2ccccc21)NCCC1=CCCCC1`, for which the “hERG current change (%, negative = inhibition) at 10uM” value is -14.1%.

As for `O=C(COC(=O)[C@@H]1CC(O)CN1S(=O)(=O)c1ccccc1[N+](=O)[O-])Nc1ccc2ccccc2c1` (stereo partly drawn), the “hERG current change (%, negative = inhibition) at 10uM” value is on record as -1.94%.

Take `Cc1ccc(S(=O)(=O)N(C)C)cc1NC(=O)COC(=O)Cc1ccsc1`: the “hERG current change (%, negative = inhibition) at 10uM” value is on record as -79%.

For the compound `CCC(C(=O)NCCN1CCOCC1)n1nc(C)n2c(cc3sccc32)c1=O` (stereo not drawn), the “hERG current change (%, negative = inhibition) at 10uM” value was 14.4%.

Take `COC(=O)COc1ccc2oc(=O)cc(C)c2c1`: the “hERG current change (%, negative = inhibition) at 10uM” value came to 9.16%.
